Data taken from paper PMC12528901.
Results are given in words; binding and its absence hold for the method and conditions named. Binding seen in cells or lysates may run through a third protein. Some entries that bind do so weakly or less than the wild type. For some of these results: Sequences can lack the tags named with a protein.

Amino acid sequences for entries named in this document (tags omitted).
UniProt Q80TN5: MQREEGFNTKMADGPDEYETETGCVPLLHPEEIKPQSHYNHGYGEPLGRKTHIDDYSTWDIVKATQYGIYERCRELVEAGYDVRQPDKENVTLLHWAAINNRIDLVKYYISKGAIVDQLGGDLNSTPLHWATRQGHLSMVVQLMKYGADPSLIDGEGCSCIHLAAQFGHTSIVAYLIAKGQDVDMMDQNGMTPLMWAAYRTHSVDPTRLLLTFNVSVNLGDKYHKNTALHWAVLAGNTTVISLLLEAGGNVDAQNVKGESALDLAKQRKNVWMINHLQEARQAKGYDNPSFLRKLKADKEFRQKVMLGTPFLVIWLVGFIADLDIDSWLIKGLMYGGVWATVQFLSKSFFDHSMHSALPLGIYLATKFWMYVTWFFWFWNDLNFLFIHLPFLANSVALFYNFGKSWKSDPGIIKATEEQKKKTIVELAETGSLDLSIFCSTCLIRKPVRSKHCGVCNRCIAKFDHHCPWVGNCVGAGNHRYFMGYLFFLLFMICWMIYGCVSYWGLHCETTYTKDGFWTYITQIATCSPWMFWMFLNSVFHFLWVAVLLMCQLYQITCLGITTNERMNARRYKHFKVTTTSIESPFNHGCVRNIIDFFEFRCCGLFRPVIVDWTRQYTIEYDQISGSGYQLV
UniProt Q7Z5G4: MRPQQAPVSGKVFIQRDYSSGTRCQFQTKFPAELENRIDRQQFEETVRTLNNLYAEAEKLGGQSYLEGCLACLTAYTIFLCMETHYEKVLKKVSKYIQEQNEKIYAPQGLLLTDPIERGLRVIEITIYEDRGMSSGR

Columns and labels:
Assay in all cases: co-IP; HA-tagged mouse Zdhhc proteins transfected into 293T ZDHHC5 KO and control cells; lysis in 50 mM Tris-HCl pH 7.4, 150 mM NaCl, 2 mM EDTA, 1% DDM; anti-HA magnetic beads overnight at 4 °C; washes in TBS with 0.5% DDM; blots for endogenous GOLGA7 or ZDHHC9
[1] = biological target: HA-Zdhhc5^RNFR (mouse Zdhhc5 with RNYR changed to RNFR) (mouse) (UniProt Q8VDZ4)
[2] = biological target: T1, HA-tagged mouse Zdhhc18 (mouse) (UniProt Q5Y5T2)
T1 sequence: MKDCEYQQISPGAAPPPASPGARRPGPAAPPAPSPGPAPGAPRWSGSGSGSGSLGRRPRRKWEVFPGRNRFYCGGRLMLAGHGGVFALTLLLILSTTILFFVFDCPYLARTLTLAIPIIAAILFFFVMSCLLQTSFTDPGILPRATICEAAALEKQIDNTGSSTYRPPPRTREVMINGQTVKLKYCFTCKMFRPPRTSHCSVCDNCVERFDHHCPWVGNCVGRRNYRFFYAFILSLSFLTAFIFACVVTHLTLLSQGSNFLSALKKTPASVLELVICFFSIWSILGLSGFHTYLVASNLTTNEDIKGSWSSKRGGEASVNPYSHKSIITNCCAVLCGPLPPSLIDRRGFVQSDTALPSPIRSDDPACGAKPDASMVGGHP

[3] = biological target: HA-tagged mouse Zdhhc17 (mouse) (UniProt Q80TN5)
[4] = biological target: HA-Zdhhc5^ANYR (mouse Zdhhc5 Arg144Ala) (mouse) (UniProt Q8VDZ4)
[5] = biological target: T2, HA-tagged mouse Zdhhc1 (mouse) (UniProt Q8R0N9)
T2 sequence: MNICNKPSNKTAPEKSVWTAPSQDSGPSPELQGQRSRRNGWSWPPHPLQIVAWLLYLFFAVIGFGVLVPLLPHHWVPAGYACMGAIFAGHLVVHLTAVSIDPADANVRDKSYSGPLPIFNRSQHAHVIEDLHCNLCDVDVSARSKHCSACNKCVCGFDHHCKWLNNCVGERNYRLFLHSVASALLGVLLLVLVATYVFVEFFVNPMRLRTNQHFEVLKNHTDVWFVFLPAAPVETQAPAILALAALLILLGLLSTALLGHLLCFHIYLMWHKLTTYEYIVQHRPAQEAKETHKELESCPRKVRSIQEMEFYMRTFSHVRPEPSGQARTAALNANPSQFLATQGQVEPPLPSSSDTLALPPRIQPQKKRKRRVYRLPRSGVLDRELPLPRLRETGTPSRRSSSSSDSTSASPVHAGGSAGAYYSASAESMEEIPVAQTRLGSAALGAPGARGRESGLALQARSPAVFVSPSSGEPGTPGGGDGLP

[6] = biological target: HA-Zdhhc5^RNAA (mouse Zdhhc5 double mutant) (mouse) (UniProt Q8VDZ4)
[7] = biological target: T3, HA-Zdhhc5^ΔN-term (mouse Zdhhc5 lacking the N terminus and transmembrane domains) (mouse) (UniProt Q8VDZ4)
T3 sequence: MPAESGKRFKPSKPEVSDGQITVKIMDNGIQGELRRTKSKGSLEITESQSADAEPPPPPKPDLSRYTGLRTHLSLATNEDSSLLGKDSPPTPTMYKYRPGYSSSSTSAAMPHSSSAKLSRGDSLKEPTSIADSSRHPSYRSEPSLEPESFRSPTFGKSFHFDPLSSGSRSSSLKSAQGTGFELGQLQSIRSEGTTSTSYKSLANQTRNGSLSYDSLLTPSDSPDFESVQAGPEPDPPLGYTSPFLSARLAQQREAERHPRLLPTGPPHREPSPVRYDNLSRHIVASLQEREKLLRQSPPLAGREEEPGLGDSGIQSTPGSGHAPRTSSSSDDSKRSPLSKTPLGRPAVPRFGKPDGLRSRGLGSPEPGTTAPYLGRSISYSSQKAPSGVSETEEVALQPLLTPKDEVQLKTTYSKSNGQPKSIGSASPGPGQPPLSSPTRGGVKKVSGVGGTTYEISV

Measured: binding

endogenous human golgin A7 (GOLGA7) (from UniProt Q7Z5G4 1-137)
no binding: [3] | [6] | [7]
binds: all other assays above
